Test results: PubChem BioAssay AID485344 (National Center for Advancing Translational Sciences (NCATS), 2010)
Out of some 340,000 compounds screened, about 6,900 (2%) were called active. No stated cut-off is given here; in the data, active means inhibition above about 30%; inactive means below that, where a call was filed. The list shows a part of the results, in another mix than the full data. The source gives no active or inactive call for entries shown without one.

biological target: D(2) dopamine receptor (Homo sapiens) (UniProt P14416); assay: HTS Assay for Allosteric Antagonists of the Human D2 Dopamine Receptor: Primary Screen for Antagonists; details: HEK293 TREx D2 cells, calcium flux, dopamine EC80; at 10 µM; stronger effect = higher value; further: 0% is about no effect
In short: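 HEK293 T-REx D2 cells, tet-induced, calcium dye no-wash. Cpd pintool add, 180 s kinetic, then EC80 DA, 180 s kinetic. Ca flux read.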

Sequence of UniProt P14416 (P14416 whole entry, looked up): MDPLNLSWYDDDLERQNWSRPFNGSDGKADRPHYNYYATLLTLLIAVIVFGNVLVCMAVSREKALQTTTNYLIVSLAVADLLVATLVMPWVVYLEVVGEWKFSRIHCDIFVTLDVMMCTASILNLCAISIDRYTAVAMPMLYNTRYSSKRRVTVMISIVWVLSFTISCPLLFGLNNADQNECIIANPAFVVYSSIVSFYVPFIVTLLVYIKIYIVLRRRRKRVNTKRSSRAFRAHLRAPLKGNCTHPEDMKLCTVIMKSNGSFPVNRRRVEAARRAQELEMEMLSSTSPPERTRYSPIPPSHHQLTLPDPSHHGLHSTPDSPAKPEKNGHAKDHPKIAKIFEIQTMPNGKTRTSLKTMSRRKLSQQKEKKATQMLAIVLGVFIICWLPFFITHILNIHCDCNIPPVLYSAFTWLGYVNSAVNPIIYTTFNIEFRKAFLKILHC

Compound | inhibition
Cc1ccccc1CNCCCSc1nnnn1-c1ccccc1 | -7.81%
OCCC1CN(CCCc2ccccc2)CCN1Cc1ccccc1 (stereo unspecified) | active: 40.2%
Cc1ccc2oc(=O)c3cnn(CC(=O)Nc4ccc(Br)cc4C)c3c2c1 | 11%
CCN(Cc1nc(-c2ccc(OC)cc2)oc1C)S(=O)(=O)c1ccc(Cl)cc1 | -25.9%
COc1ccc(-c2nc(S(=O)(=O)c3ccccc3)c(N3CCCCC3)o2)cc1 | 4.6%
Cc1ccc(C)c(OCCCn2c(-c3ccc(Cl)cc3)nc3ccccc3c2=O)c1 | -14.2%
Cc1c(Cl)cccc1NC(=O)Cc1ccc([N+](=O)[O-])cc1 | active: 44.8%
COc1ccc(N2CCN(C(=O)c3cccn4c(=O)c5ccc(Cl)cc5nc34)CC2)cc1 | -12.3%
Cc1cccc(NC(=O)c2ccc(F)c(S(=O)(=O)N(C)C3CCCCC3)c2)c1 | -4.38%
COc1ccc(NC(=O)C(C)n2nc(C)c3c(C)n(-c4ccccc4)nc3c2=O)cc1Cl (stereo unspecified) | -10.8%
CCOCCCNC(=O)C(c1ccc(Cl)cc1)N(Cc1ccc2c(c1)OCO2)C(=O)c1ccccc1O (stereo unspecified) | -3.29%
CC(=O)Nc1ccc(Nc2nc3ccc(C)cc3n3nnnc23)cc1 | -4.19%
O=C(CSC1=Nc2ccccc2C2=NC(CCC(=O)NC3CCCCC3)C(=O)N12)Nc1cccc(Cl)c1 (stereo unspecified) | 9.69%
CCOC(=O)C1CCC(CN(Cc2c(Cl)cccc2Cl)S(=O)(=O)c2ccc(F)c(C)c2)CC1 (stereo unspecified) | -17.6%
CCOC(=O)c1c(C)[nH]c(C)c1S(=O)(=O)N(C)CC(=O)Nc1cc(Cl)ccc1OC | 5.54%
COc1cccc(NC(=O)CCNS(=O)(=O)c2ccc3c(c2)CCCC(=O)N3)c1 | -17.8%
COc1ccc(NC(=O)Cn2c(=O)n(-c3ccccc3)c(=O)c3ccc(C(=O)NCc4ccc5c(c4)OCO5)cc32)cc1 | 2.64%
CC1(C)C(=O)N(CC(=O)Nc2ccc(OC(F)(F)F)cc2)c2ccccc21 | -27%
CCCCOc1ccc(-c2nc(-c3cccnc3)no2)cc1 | active: 34.4%
Oc1cccc(Nc2nc(-c3ccccc3)nc3ccccc23)c1 | -6.5%
CCCSc1ncc(Cl)c(C(=O)Nc2ccc(CC)cc2)n1 | 14.8%

Compound | inhibition
CCN(CCCNC(=O)c1cc2cc3cc(OC)ccc3nc2s1)c1ccccc1 | 11.2%
Cc1ccc(CNC(=O)CSc2nc3ccsc3c(=O)n2-c2ccc(C(=O)O)cc2)cc1 | -10.4%
Cn1c(=O)c2c(SCC(=O)NCC3CCCO3)nc(-c3ccccc3F)nc2n(C)c1=O (stereo unspecified) | -3.45%
COc1cccc(/C=C(\C#N)c2nc3ccc(C)cc3[nH]2)c1 | 2.56%
CCOC(=O)c1ccc(NS(=O)(=O)c2cc3c(cc2C)n(C)c(=O)c(=O)n3C)cc1 | 23.2%
O=C(Cn1c(=O)n(-c2ccccc2)c(=O)c2ccc(C(=O)NCc3ccc4c(c3)OCO4)cc21)Nc1ccc(Br)cc1F | 17.3%
CCOc1ccc(NC(=O)CSc2oc(-c3cccs3)nc2S(=O)(=O)c2ccc(Cl)cc2)cc1 | -7.55%
CCOc1ccc(CNC(=O)c2cnc(SC)nc2CC)cc1 | 3.8%
CCCCSCCCNC(=O)CN1C(=O)COc2ccc(S(=O)(=O)N3CCCC3)cc21 | -11.1%
COc1ccc(CNc2nc(-c3ccc(OC)c(OC)c3)cc(C(F)(F)F)n2)cc1 | -12.1%
CCOCCCNC(=O)N1CCN(S(=O)(=O)c2ccc3c(ccn3C)c2)CC1 | 7.12%
COc1ccc(-c2noc(-c3ccc(N4CCOCC4)c([N+](=O)[O-])c3)n2)cc1OC | 10.4%
Cc1ccc(CN2CCC(NC(=O)c3ccccc3)CC2)cc1 | active: 89.7%
Cc1ccc(S(=O)(=O)N(Cc2nc(-c3ccc(Cl)cc3)no2)C2CCCCC2)cc1 | -4.82%
O=S(=O)(Nc1c(F)cccc1F)c1ccc2c(c1)OCCO2 | 9.74%
COc1ccc(Cl)cc1C(=O)NNC(=S)NC(=O)c1ccc(F)c(F)c1 | active: 40.4%
Cc1ccc2oc(C(=O)Nc3c(C(=O)c4ccc(C)c(F)c4)oc4ccccc34)cc(=O)c2c1 | -9.01%
CCn1nnc2cc(C(=O)Nc3cccc(C(F)(F)F)c3)ccc21 | -8.63%
COc1ccc(C)cc1NC(=O)C(CCSC)NS(=O)(=O)c1ccc2c(c1)oc(=O)n2C (stereo unspecified) | -7.38%
CCOC(=O)N1CCc2c(sc3c2c(=O)n(Cc2ccccc2)c(=O)n3CC(=O)Nc2ccccc2F)C1 | -15.2%
CC(C)NC(=O)c1cnc2sc(N3CCCCCC3)nn2c1=O | 2.43%

Compound | inhibition
CCOC(=O)c1c(C)[nH]c(CCC(=O)Nc2ccc(N(CC)CC)cc2C)c1C | 4.03%
COc1ccc(CN(C(=O)Nc2ccccc2)c2ccccn2)cc1OC | 5.61%
Cc1ccc(CCNC(=O)CCSCc2ccccc2F)cc1 | -7.32%
Cc1cccc(Cn2c(=O)n(CCc3ccccc3)c(=O)c3sc4ccccc4c32)c1 | 12.4%
CCOC(=O)c1cc(-c2ccccc2)nn1Cc1ccccc1 | 0.94%
O=C(CCOc1ccccc1)N(Cc1cccnc1)c1nc2c(Cl)cccc2s1 | 12.3%
CN1C2CCC1CC(OC(c1ccccc1)c1ccccc1)C2 (stereo unspecified) | active: 36.2%
Cc1ccc(C2c3[nH]c4ccccc4c3CCN2C(=O)c2ccc(N(C)C)cc2)cc1 (stereo unspecified) | 22.6%
COc1ccc(Br)cc1CN1CCCC(C(=O)N2CCCCCC2)C1 (stereo unspecified) | active: 32.4%
Cc1ccc(C)c(N2CCN(C(=O)C3CCN(Cc4nc(-c5cccc(Cl)c5)oc4C)CC3)CC2)c1 | 22%
O=C(c1cccs1)N(Cc1ccco1)Cc1cc2ccccc2[nH]c1=O | active: 59.8%
NC(=O)C1(N2CCCCC2)CCN(C(=O)Nc2ccc(Cl)c(Cl)c2)CC1 | -17.7%
COc1cccc(NC(=O)c2sc3nc(C)c(C(=O)Nc4ccc(C)cc4C)c(-c4ccc(Br)cc4)c3c2N)c1 | -6.7%
Cc1cc(Cl)ccc1NC(=O)C1CCN(S(=O)(=O)c2ccc3[nH]c(=O)ccc3c2)CC1 | -22.2%
COc1ccc(N2CCN(C(=O)c3cc4c(=O)n(Cc5cccs5)ccc4nc3C)CC2)cc1 | 1.5%
Cc1ccc2nc(SC(Cc3cc(Cl)ccc3Cl)C(=O)O)[nH]c2c1 (stereo unspecified) | -4.76%
COc1ccc(CNC(=O)c2cc3sccc3n2C)cc1 | 5.21%
Cc1nc2nc(SCC(=O)c3cccc([N+](=O)[O-])c3)[nH]c2cc1Br | active: 38.3%
Cc1cccc(CN2C(=O)c3ccccc3Sc3ccc(C(=O)NCCc4ccccc4)cc32)c1 | -9.52%
